Measured values: PubChem BioAssay AID1347071 (National Center for Advancing Translational Sciences (NCATS), 2019)
Among all 410,000 compounds or so, about 260 (0.063%) were called active. This list was built around the results that the source calls inconclusive (neither active nor inactive); the mix of calls is not that of the screen. Calls follow the shape of the dose curve; as a rule, active = well fitted activation curve with a large enough effect; inconclusive = small, poorly fitted or top-dose-only effect; inactive = no such curve, though single readings can be large or run the other way. Potencies of inconclusive entries are left out as doubtful fits.

experiment: qHTS for compounds that reverse cellular toxicity of Amyloid beta (A-beta) peptide in yeast: Primary Screen; settings: yeast expressing A-beta42, growth rescue, OD600, 48 h; growth rescue: at 46.1 µM (top of the series), 0% DMSO, 100% iron-clioquinol control; also: nearly all actives have a fitted effect of over 55% in size
In short: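 Growth rescue measured by 600 nm absorbance after 48 h yeast culture at 30 C with compound. Values normalized between DMSO and an equimolar ferric chloride plus clioquinol control.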
Potency is read from the fitted curve at half-maximal effect; tags tell the direction and shape of the fitted curve.

SMILES	growth rescue	Potency
CCOc1ccc(-c2nc(CSCC(=O)N3CCN(c4ccc(F)cc4)CC3)c(C)o2)cc1	inactive: -7.38%	–
CCC(C(=O)Nc1cc(OC)cc(OC)c1)n1nc(-c2ccc(C)c(C)c2)ccc1=O (stereo unspecified)	–	inconclusive [activator, single point]
Cc1ccc(-c2noc(CN3CCN(c4ccccc4F)CC3)n2)cc1	–	inconclusive [activator, partial curve, poor fit]
O=C(Nc1cccc(Cl)c1)c1ccc(F)c(S(=O)(=O)NCc2cccs2)c1	–	inconclusive [activator, single point]
CCC(=O)Nc1nc2ccccc2n1Cc1ccccc1C	–	inconclusive [activator, single point]
COc1ccc(NC(=O)c2ccc(-c3nn(C)c(=O)c4ccccc34)cc2)cc1C(N)=O	inconclusive: 34% [activator]	–
O=S(=O)(NCC1CCCO1)c1cc(Cl)ccc1Cl (stereo unspecified)	–	inconclusive [activator, partial curve]
CCCCCCSc1ccc([C@H]2N[C@@](C)(C(=O)OC)[C@H]3C(=O)N(CC)C(=O)[C@@H]23)cc1	–	inconclusive [activator, single point]
CC12c3ccccc3C(c3ccccc31)C1C(=O)N(Cc3cccnc3)C(=O)[C@H]12 (stereo partly specified)	–	inconclusive [activator, partial curve, poor fit]
Oc1ccccc1N1CCN(C(=S)NCc2ccccc2)CC1	–	inconclusive [activator, single point]
COC(=O)CSc1nc2c(c(-c3ccco3)c1C#N)CCCC2	inactive: -3.36%	–
O=C(Nc1nc2ccc(S(=O)(=O)N3CCCC3)cc2s1)C1CCCCC1	–	inconclusive [activator, single point]
CCOC(=O)c1cc(CC)sc1NC(=O)c1ccc2c(c1)OCCO2	inactive: -16.1%	–
O=C(CC12CC3CC(CC(C3)C1)C2)NC(=S)NCc1ccco1	–	inconclusive [activator, full curve, poor fit]
O=S(=O)(NCc1ccc(Cl)cc1)c1cnc[nH]1	inactive: 5.14%	–
CN(CC(=O)N1CCc2ccccc2C1)c1ccccc1	inconclusive: 35.1% [activator]	–
COc1ccc(NC(=O)C2=C(C)Nc3nc(SCc4ccccc4C)nn3C2c2cc(OC)c(O)c(OC)c2)cc1 (stereo unspecified)	–	inconclusive [activator, full curve]
COc1ccc(-c2n[nH]c(=S)o2)c(OC)c1	inactive: 12.2%	–
COc1ccc(OCc2n[nH]c(=S)n2Cc2ccco2)cc1	–	inconclusive [activator, partial curve]
O=C(NNS(=O)(=O)c1ccc(Br)cc1)c1csnn1	inconclusive: -8.83% [activator]	–
CCOc1ccccc1CN1C(=O)NC2(CCCCCC2)C1=O	–	inconclusive [activator, partial curve]
CSCCC(NS(=O)(=O)c1ccccc1F)C(=O)NCC(c1ccco1)N(C)C (stereo unspecified)	–	inconclusive [activator, single point]
Cc1ccc(C)c(NC(=S)NNc2ccc(F)cc2F)c1	–	inconclusive [activator, partial curve, poor fit]

SMILES	growth rescue	Potency
CN(C)c1nc2c(cnn2C)c(=O)[nH]1	inactive: -8.19%	–
CCc1ccc(OCC(=O)NNC(=S)NC(=O)C2CC2)c(Br)c1	inactive: -79.1%	–
Cc1cc2nc(C(C)(C)C)c(Cc3cccc(Cl)c3)n2c(C)c1Br	–	inconclusive [activator, single point]
O=C(CCCc1ccccc1)Nc1nccs1	inactive: 6.52%	–
Cc1cccc(NC(=O)C(c2ccccc2)N2Cc3ccccc3C2=O)c1C (stereo unspecified)	inactive: 15.2%	–
O=C(O)CCCN1C(=O)/C(=C/c2ccncc2)SC1=S	–	inconclusive [activator, partial curve, poor fit]
COc1cccc2cc(-c3nnc(Nc4ccccc4C)s3)c(=O)oc12	inactive: 16.3%	–
COc1cc2c(cc1OC)/C(=C/C(=O)c1ccccc1)NCC2	–	inconclusive [activator, partial curve]
Cc1cccc(C(=O)NC(=S)NNC(=O)c2ccc(Cl)cc2)c1	–	active: 3.16 µM
COc1ccc(Br)cc1Cn1nnc(C(=O)Nc2ccc3c(c2)OCCO3)c1N	inactive: -0.193%	–
CCNC(=S)N/N=C/c1cn(Cc2ccc(F)cc2)c2ccccc12	–	inconclusive [activator, partial curve, poor fit]
CCn1c(C(=O)NCCCc2ccccc2)cc2sccc21	–	inconclusive [activator, full curve]
CCc1ccc(C(C)NC(=S)NC2CCCCC2)cc1 (stereo unspecified)	–	active: 10 µM
COc1ccc(CNC(=O)CCSCc2ccc(C)cc2)cc1	–	inconclusive [activator, partial curve, poor fit]
CC(=O)c1cn(CCOc2ccc(F)cc2)c2ccccc12	–	inconclusive [activator, partial curve, poor fit]
Cc1ccc(Sc2c(O)c3ccccc3n(C)c2=O)cc1	–	inconclusive [activator, partial curve, poor fit]
O=C(Nc1ccccc1Cc1ccccc1)c1ccccc1F	–	active: 2.51 µM
O=C(c1cc(-c2ccc(Br)cc2)n[nH]1)N1CCN(C(=O)c2ccccc2Br)CC1	–	inconclusive [activator, partial curve, poor fit]
Cc1c(CN2CCC(n3nccc3NC(=O)C3CC3)CC2)[nH]c2ccccc12	inactive: 7.84%	–
CC(Oc1ccc(Cl)cc1Cl)C(=O)OCn1nnc2ccccc2c1=O (stereo unspecified)	–	inconclusive [activator, partial curve, poor fit]
CN(C)S(=O)(=O)c1cccc(NC(=S)N/N=C/c2ccco2)c1	–	inconclusive [activator, partial curve]
COc1ccc(S(=O)(=O)NCCc2ccccc2)cc1OC	inactive: 4.43%	–
COc1ccc(CN(C(=O)c2ccc(-c3ccccc3)[nH]2)C(C(=O)NC(C)(C)C)c2ccncc2)cc1 (stereo unspecified)	–	inconclusive [activator, partial curve, poor fit]
